Test results from PubChem BioAssay AID1508623 (National Center for Advancing Translational Sciences (NCATS), 2021).
Out of some 48,000 compounds screened, about 450 (0.94%) were called active. Another 19% or so got no clear call; they are omitted. The call rests on the fitted dose curve; in most records, active means well fitted inhibition curve with a large enough effect; inconclusive means small, poorly fitted or top-dose-only effect; inactive means no such curve, though single readings can be large or run the other way. The list shows a part of the results.

Test: Primary qHTS for Identification of Small Molecule Inhibitors of Huntingtin Promoter Activity; further: nearly all actives have a fitted effect of over 50% in size
Details: HEK293 HTT promoter firefly luciferase reporter (activity 0% = vehicle and -100% = no light), 24 h; series mostly up to 57.5 µM; activity change, negative = inhibition: at the top concentration
Summary of the method: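 HEK293 luciferase promoter-reporter cells (2,500/well) plated 24 h, then compounds added at up to 57.5 uM final for 24 h at 37 °C. Firefly luminescence by Dual-Glo, normalized to vehicle (0%) and zero RLU (-100%).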
Potency means the concentration at half of the fitted maximal effect.

| SMILES | activity change, negative = inhibition | Potency |
| --- | --- | --- |
| CN(C)c1ccc(CNC(=O)C2CCN(S(=O)(=O)c3ccc4c(ccn4C)c3)CC2)cc1 | inactive: -19.2% |  |
| Cc1n[nH]c(C)c1S(=O)(=O)N1CCCC(C(=O)Nc2ccc(Cl)cc2)C1 (stereo unspecified) |  | active: 28.2 µM |
| Cc1ccc(C)c(N2CCN(C(=O)Cn3c(-c4cccs4)cc4ccccc43)CC2)c1 | inactive: -29.8% |  |
| CCN(C(=O)Cn1cc(S(=O)(=O)Cc2ccccc2Cl)c2ccccc21)c1ccccc1 | inactive: -21.4% |  |
| CCOC(=O)c1ccc(NC(=O)C(CC)Sc2nc3ncccc3o2)cc1 (stereo unspecified) | inactive: 74.8% |  |
| C[C@@H](CN(C)C)CN1c2ccccc2Sc2ccccc21 | inactive: -14% |  |
| Cc1ccc(N2CCN(C(=O)c3c4c(nc5ccccc35)C(=O)N(C3CCCCC3)C4)CC2)c(C)c1 | inactive: -4.54% |  |
| COc1ccc(C(=O)Nc2nc3c(s2)CCc2cc(OC)ccc2-3)cc1 | inactive: -6.68% |  |
| COCCCn1c(SCC(=O)NCc2ccccc2)nc2c(sc3ccccc32)c1=O | inactive: -3.5% |  |
| Cc1ccc(-n2ncc3c(N4CCN(CCO)CC4)ncnc32)cc1Cl | inactive: 21.2% |  |
| CCCCNc1nc(Oc2ccc(OCC(N)=O)nn2)nc(N2CCOCC2)n1 | inactive: -6.44% |  |
| COc1ccc(C2C(=O)c3ccccc3C2=O)cc1 | inactive: 10.5% |  |
| CC(C)n1c(C=C[C@H](O)C[C@H](O)CC(=O)O)c(-c2ccc(F)cc2)c2ccccc21 | inactive: 13.8% |  |
| CCOc1cc(C2c3c(oc4ccc(F)cc4c3=O)C(=O)N2Cc2ccco2)ccc1O (stereo unspecified) | inactive: -11.4% |  |
| Cc1ccc(-c2cc(C(=O)NCc3cnn(C)c3)c3cc(Br)ccc3n2)cc1 | inactive: 9.81% |  |
| Cc1ccc(-n2c(SCC(=O)Nc3ccc4c(c3)OCO4)nc3c([nH]c4ccccc43)c2=O)cc1 | inactive: -8.14% |  |
| CCc1ccccc1N(C)C(=O)c1cnc(N2CCOCC2)c2ccccc12 | inactive: -5.33% |  |
| Cc1cc(Br)ccc1NC(=O)c1cn(C2CCCC2)c(=O)c2c1c1ccccc1n2C | inactive: 0.797% |  |
| Cc1ccc(Cc2nc3ccccc3nc2SCC(=O)NCc2ccc(F)cc2)cc1 | inactive: -2.56% |  |
| CCC(=O)C1=C(c2cccc([N+](=O)[O-])c2)N(C(=O)CC)n2c(nnc2-c2ccccc2)S1 | inactive: -9.46% |  |
| COc1ccc(CCNC(=O)Cn2c(=O)n(-c3cc(OC)c(OC)c(OC)c3)c(=O)c3ccccc32)cc1OC | inactive: -15.2% |  |
| COc1cccc(CNc2nc3c(-c4ccccc4)nnn3c3ccccc23)c1 | inactive: -11.2% |  |
| Cc1ccc2oc(=O)c3cnn(CC(=O)N4CCN(c5cc(Cl)ccc5C)CC4)c3c2c1 | inactive: 10.4% |  |
| CN1C(C(=O)Nc2ccccn2)=C(O)c2sccc2S1(=O)=O | inactive |  |

| SMILES | activity change, negative = inhibition | Potency |
| --- | --- | --- |
| CN(Cc1ccccc1)C(=O)CSc1nc2ccsc2c(=O)n1-c1ccc(F)cc1 | inactive: -9.39% |  |
| CCn1cc(C(=O)NCCCN(CC(C)C)CC(C)C)c(=O)c2cc(S(=O)(=O)N(C)C3CCCCC3)ccc21 | inactive: -3.71% |  |
| COc1ccc(NC(=O)CCc2nnc3n(C)c(=O)c4sccc4n23)cc1Cl | inactive: -4.54% |  |
| COc1cccc(N2C(=O)N(Cc3ccc(C#N)cc3)c3ccccc3S2(=O)=O)c1 | inactive: -22.8% |  |
| CCc1ccccc1NC(=O)Cn1c(=O)n(CC2CCC(C(=O)NCCc3ccccc3)CC2)c(=O)c2ccccc21 (stereo unspecified) | inactive: -7.23% |  |
| CCC(=O)N1CCc2cc(Br)cc(S(=O)(=O)CCC(=O)Nc3ccc(C)c(C)c3)c21 | inactive: -2.84% |  |
| COc1ccc(-c2noc(-c3ccc(NCc4cccnc4)c([N+](=O)[O-])c3)n2)cc1 | inactive: -2.77% |  |
| COc1ccc(C2=NS(=O)(=O)N(C)C(C(=O)NCc3ccccc3)=C2)cc1OC | inactive: -0.346% |  |
| CCc1ccc(NC(=O)C(=O)NCC(c2ccc3c(c2)OCO3)N2CCOCC2)cc1 (stereo unspecified) | inactive: -17.1% |  |
| Cc1ccc(Cl)c(NC(=O)Nc2csc3c2CCCC3)c1 | inactive: 14.8% |  |
| Cc1ncc([N+](=O)[O-])n1CC(O)CCl (stereo unspecified) | inactive: 1.18% |  |
| CCCC(=O)N(c1ccc2oc(C)c(C(C)=O)c2c1)S(=O)(=O)c1ccc(C)cc1 | inactive: -24% |  |
| CCOC(=O)c1nc(N2CCN(c3ccc(F)cc3)CC2)c2c(C)noc2n1 | inactive: -20.1% |  |
| CCn1c(=O)n(-c2ccc(F)c(Cl)c2)c(=O)c2c3c(sc21)CN(C(C)=O)CC3 | inactive: -13.3% |  |
| COc1cccc(C(=O)Nc2ccc(-c3nc4ccccc4s3)cc2Cl)c1 | inactive: -12.3% |  |
| COc1ccc(NC(=O)CCCc2nnc3n(CCC(C)C)c(=O)c4sccc4n23)c(OC)c1 | inactive: -11.4% |  |
| COc1ccc(-c2csc3nc(-c4ccc(F)cc4)oc(=O)c23)cc1 | inactive: 1.62% |  |
| COCCNC(=O)c1ccc(-n2c(-c3ccccc3)cc3c2CCCCC3)cc1 | inactive: 15.4% |  |
| CCc1ccccc1NC(=O)Cn1nnc(-c2nc(-c3ccc(C)cc3)no2)c1N | inactive: 5.82% |  |
| CCOC(=O)c1ccccc1NC(=O)CN1C(=O)CC(c2ccco2)Sc2ccccc21 (stereo unspecified) | inactive: -22.2% |  |
| Cc1oc(-c2ccc(Cl)cc2)nc1Cn1c(=O)cc(C)c2c(C)nn(-c3cccc(F)c3)c21 | inactive: -0.908% |  |
| Cc1ccc(C(=O)Nc2ccc(C(=O)OCc3cc(=O)n4nc(C5CC5)sc4n3)cc2)cc1 | inactive: 0.194% |  |
| CCn1cc(C(=O)N2CCN(c3ccc(F)cc3)CC2)c(=O)c2cc(S(=O)(=O)N3CCOCC3)ccc21 | inactive: -0.27% |  |
| COc1ccc(NC(=O)C(=O)NCC(c2ccc3c(c2)OCO3)N2CCN(C)CC2)cc1 (stereo unspecified) | inactive: -13% |  |

| SMILES | activity change, negative = inhibition | Potency |
| --- | --- | --- |
| CCOc1cc(CNC(=O)CCCn2c(=O)c3cccn3c3cccnc32)cc(OCC)c1OCC | inactive: -22.8% |  |
| CC(=O)Nc1cccc(NC(=O)CSc2cn(CC(=O)N(C(C)C)C(C)C)c3ccccc23)c1 | inactive: -8.73% |  |
| COc1ccc(NC(=O)CN2C(=O)COc3ccc(S(=O)(=O)Nc4ccccc4)cc32)cc1OC | inactive: -9.81% |  |
| CCN(c1cccc(C)c1)S(=O)(=O)c1ccc2c(c1)NC(=O)CCS2 | inactive: -14.7% |  |
| O=C(COCc1cc(-c2cccs2)on1)Nc1cccc(Cl)c1Cl | inactive: -7.38% |  |
| O=C(NC1CC(=O)N(c2ccccc2)C1)c1ccc(Br)o1 (stereo unspecified) | inactive: -16.3% |  |
| O=C(NCCCN1CCN(c2cccc(Cl)c2)CC1)Nc1ccccc1C(F)(F)F | inactive: -14.7% |  |
| CCN(CC)CCOC(=O)C1(c2ccccc2)CCCC1 | inactive: 4.62% |  |
| COc1cccc(CNC(=O)C2CCN(c3nn4c(=O)cc(C)nc4s3)CC2)c1 | inactive: -8.01% |  |
| CCOc1ccc(NC(=O)c2cc3c(n(-c4ccc(OC)cc4)c2=O)CC(C)(C)CC3=O)cc1 | inactive: -8.68% |  |
| COc1ccccc1Cn1c(CNS(=O)(=O)c2ccccc2Cl)nc2cccnc21 | inactive: -8.41% |  |
| CNc1nc(-c2ccc3c(N)n[nH]c3c2)cc(N2C[C@@H](C(=O)NC3CCCCC3)CC[C@@H]2C)n1 | inactive: -18.4% |  |
| CCOC(=O)c1ccc2c(c1)N(CC(=O)Nc1ccc(C)cc1C)C(=O)c1ccccc1S2 | inactive: -17.2% |  |
| COc1ccc(NC(=O)c2nnn(Cc3nc(-c4cc(OC)c(OC)c(OC)c4)oc3C)c2C)cc1 | inactive: -1.65% |  |
| CCN(CC)C(=O)Cn1cc(SCC(=O)Nc2ccccc2F)c2ccccc21 | inactive: -18.3% |  |
| COc1ccc(-c2nc(C(N)=O)c3c(n2)n(-c2ccccc2OC)c(=O)n3C)c(OC)c1 | inactive: -13.2% |  |
| CSc1cccc(NC(=O)C2CCN(c3ncnc4c3nc3n4CCCCC3)CC2)c1 | inactive: -25.5% |  |
| O=C(c1ccc(F)cc1)N1CCC(c2nc3ccccc3o2)CC1 | inactive: -18.3% |  |
| CC(C)NC(=O)CC(=O)Nc1ccc2nc3n(c(=O)c2c1)CCCCC3 | inactive: -6.76% |  |
| N=C(N)N | inactive: -1.89% |  |
| CCOc1ccccc1NC(=O)C(NS(=O)(=O)c1ccc2c(c1)CCC(=O)N2)c1ccccc1 (stereo unspecified) | inactive: -17.1% |  |
| O=C(NC1CCCCCC1)c1cc2c(Cl)nc3ccccc3c2s1 | inactive: -2.32% |  |
| COc1ccc(CNC(=O)c2ccc3c(c2)N(C)C(=O)C2CCCCN32)cc1OC (stereo unspecified) | inactive: 19.8% |  |
| CC(C)(C)c1ccc(Oc2nc3ccccn3c(=O)c2/C=C(\C#N)c2nc3ccccc3[nH]2)cc1 | inactive: -4.86% [at 11.5 µM] |  |

| SMILES | activity change, negative = inhibition | Potency |
| --- | --- | --- |
| O=C(CCC(=O)N1CC2CCCN2c2ccccc21)NCc1ccccc1 (stereo unspecified) | inactive: -13.5% |  |
| O=C(NC1CCOCC1)c1ccc(-c2cc(-c3cn[nH]c3-c3ccccn3)ccn2)cc1 | inactive: 1.17% |  |
| CCOC(=O)c1ccc(NC(=O)C2=C(C)Nc3nc(SCc4ccc(Cl)cc4)nn3C2c2ccc(C)cc2)cc1 (stereo unspecified) | inactive: 2.2% |  |
| CCOc1ccc(CC(=O)NCCc2csc(-c3ccc(C(F)(F)F)cc3)n2)cc1 | inactive: -7.9% |  |
| Cc1nn(C(=O)COc2ccccc2)c(C)c1Sc1ccccc1 | inactive: -11.9% |  |
| CC(NC(=O)c1nn(C)c2c1CSc1ccccc1-2)c1ccccc1 (stereo unspecified) | inactive: 21.2% |  |
| CC1CCN(C(=O)CN2CCSc3ccccc32)CC1 | inactive: -7.26% |  |
| O=C(Nc1ccc(SC(F)F)cc1)c1cc(-c2cccs2)on1 | inactive: 26.3% |  |
| Cc1ccc(-c2cc(NC(=O)C(C)Oc3ccc(C)c(C)c3)on2)cc1 (stereo unspecified) | inactive: 7.26% |  |
| COc1ccc(N2CC(c3nc(-c4cc(OC)c(OC)c(OC)c4)no3)CC2=O)cc1Cl (stereo unspecified) | inactive: -11.5% |  |
| O=C(CCS(=O)(=O)c1cccs1)Nc1ccc(C(=O)Nc2cccc(Cl)c2)cc1 | inactive: -2.98% |  |
| COc1cc(OC)cc(C(=O)N2CCC(c3ccncc3)CC2)c1 | inactive: -10.8% |  |
| Cc1ccc(C)c(NC(=O)CN2C(=O)CSc3nc(C)cc(C)c32)c1 | inactive: -8.49% |  |
| Cc1ccc(CNC(=O)CN(c2ccc(C(C)C)cc2)S(=O)(=O)c2c(C)n[nH]c2C)cc1 | inactive: -20.3% |  |
| CC(C)(C)CC(=O)Nc1nnc2n1CCS2 | inactive: -2.5% |  |
| COc1ccc(Cn2ccnc2SCC(=O)Nc2ccc(C)cc2C)cc1 | inactive: -9.74% |  |
| O=C(COc1ccc(Cl)cc1)Nc1ccccc1C(=O)OCc1cc(=O)n2ccsc2n1 | inactive: 5.67% |  |
| CCCC(=O)NCC(c1ccc2c(c1)OCO2)N1CCOCC1 (stereo unspecified) | inactive: -4% |  |
| COc1ccccc1CNC(=O)CN1C(=O)CSc2c1c(C)nn2-c1ccccc1 | inactive: -9.24% |  |
| C/C=C/C(=O)N(CC)c1ccccc1C | inactive: 5.15% |  |
| CC(=O)c1ccc(NS(=O)(=O)c2cc3[nH]c(=O)c(=O)[nH]c3cc2C)cc1 | inactive: -2.27% |  |
| Cc1ccc(C)c(N2CCN(C(=O)Cn3ncc4c(=O)oc5ccc(C)cc5c43)CC2)c1 | inactive: 3.35% |  |
| COc1ccc(S(=O)(=O)NCCc2nnc3ccc(SCC(=O)Nc4ccc(C(F)(F)F)cc4)nn23)cc1 | inactive: -22.7% |  |
| CCCn1c(=N)c(C(=O)NCc2cccnc2)cc2c(=O)n3cc(C)ccc3nc21 | inactive: -1.76% |  |
